From US20120207730A1 (priority 2008, published 2012)
“And” between values parts separate entries of the source, which are not always exact repeats. Equal values may be shown once.

What was measured:
[1] = tested on: DENV-infected endothelial cells; assay type: cell-based; details: for DENV-induced cell death (percent TUNEL+ apoptotic cells): DENV MOI of 1, 5 or 10, 4 μM zVAD-FMK or 25 μM fumonisin B1 from 30 min before infection, FIG. 6E
HUVEC monolayer = details: 24 h
HUVEC = assay type: cell-based, human
[2] = tested on: Dengue virus type 2 strain 16681; details: mouse, in vivo

benzyl-oxycarbonyl-valyl- alanylaspartic acid fluoro-methyl ketone [zVAD-FMK]
DENV-induced cell death (percent TUNEL+ apoptotic cells) [1]: significantly reduced
effect of TNF-α on endothelial cell permeability (BSA in lower chamber) (HUVEC monolayer): to the level of controls
effect of TNF-α on DENV-induced endothelial cell death (MTT cell viability) (HUVEC): reversed

COc1cc(C(C)=O)ccc1O [apocynin, 4-hydroxy-3-methoxyacetophenone]
kind of hemorrhage developed [2]: mild and local hemorrhage
percent hemorrhage development [2]: 28.6% and 21.4%

CC(=O)N[C@@H](CS)C(=O)O [NAC, N-acetyl cysteine]
DENV-induced endothelial cell death (percent TUNEL+ apoptotic cells) ([1]; 24 h): partially reduced
effect of TNF-α on DENV-induced endothelial cell death (MTT cell viability) (HUVEC): reversed

COC(=O)CC(NC(=O)OC(C)(C)C)C(=O)CF [Boc-D-FMK]
percentage of mice that developed hemorrhage [2]: greatly reduced
severity of hemorrhage [2]: greatly reduced

CCCC[C@@H](C)[C@@H](OC(=O)C[C@@H](CC(=O)O)C(=O)O)[C@H](C[C@@H](C)C[C@H](O)CCCC[C@@H](O)C[C@H](O)[C@H](C)N)OC(=O)C[C@@H](CC(=O)O)C(=O)O [fumonisin B1]
DENV-induced cell death (percent TUNEL+ apoptotic cells) [1]: significantly reduced
